Results: the supplement of paper PMC8728848
The other results are listed elsewhere or left out.

Columns and labels:
Test in all cases: glycan array binding signal (z-score within array); higher = stronger binding
Settings in all cases: glycan notation: IUPAC condensed, linker removed
[1] = target: Gal3S4S(b1-4)GlcNAc
In short: (§1)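 The Consortium for Functional Glycomics database supplied 3228 glycan arrays, of which those lacking an available protein sequence were dropped. The binding signal, a within-array Z-score, was averaged across arrays of the same protein sequence and across linkers. Negative scores can be read as non-binding.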

[2] = target: Gal3S6S(b1-4)GlcNAc
In short: as §1

[3] = target: Gal3S6S(b1-4)GlcNAc6S
In short: as §1

[4] = target: Gal4S(b1-4)GlcNAc
In short: as §1

[5] = target: Gal4S6S(b1-4)GlcNAc
In short: as §1

[6] = target: Gal6P(b1-4)GlcNAc
In short: as §1

[7] = target: Gal6S(b1-3)GlcNAc
In short: as §1

[8] = target: Gal6S(b1-3)GlcNAc6S
In short: as §1

[9] = target: Gal6S(b1-4)Glc
In short: as §1

[10] = target: Gal6S(b1-4)Glc6S
In short: as §1

[11] = target: Gal6S(b1-4)GlcNAc
In short: as §1

[12] = target: Gal6S(b1-4)GlcNAc6S
In short: as §1

[13] = target: GalNAc(a1-3)Gal
In short: as §1

[14] = target: GalNAc(a1-3)GalNAc
In short: as §1

[15] = target: GalNAc(a1-3)GalNAc(b1-3)Gal(a1-4)Gal(b1-4)Glc
In short: as §1

[16] = target: GalNAc(a1-3)GalNAc(b1-3)Gal(a1-4)Gal(b1-4)GlcNAc
In short: as §1

[17] = target: GalNAc(b1-3)Gal
In short: as §1

[18] = target: GalNAc(b1-3)Gal(a1-4)Gal(b1-4)GlcNAc
In short: as §1

[19] = target: GalNAc(b1-3)Gal(a1-4)Gal(b1-4)GlcNAc(b1-3)Gal(b1-4)Glc
In short: as §1

[20] = target: GalNAc(b1-3)Gal(a1-6)Gal(b1-4)Glc
In short: as §1

[21] = target: GalNAc(b1-3)GalNAc
In short: as §1

[22] = target: GalNAc(b1-3)GlcNAc
In short: as §1

[23] = target: GalNAc(b1-4)Gal(b1-4)Glc
In short: as §1

[24] = target: GalNAc(b1-4)GlcNAc
In short: as §1

[25] = target: GalNAc(b1-4)GlcNAc(b1-2)Man
In short: as §1

[26] = target: GalNAc(b1-4)GlcNAc(b1-2)Man(a1-3)[GalNAc(b1-4)GlcNAc(b1-2)Man(a1-6)]Man(b1-4)GlcNAc(b1-4)GlcNAc
In short: as §1

[27] = target: GalNAc(b1-4)GlcNAc(b1-3)GalNAc(b1-4)GlcNAc
In short: as §1

[28] = target: GalNAc(b1-4)GlcNAc6S
In short: as §1

[29] = target: GalNAc(b1-6)GalNAc
In short: as §1

[30] = target: GalNAc3S(b1-4)GlcNAc
In short: as §1

[31] = target: GalNAc3S(b1-4)GlcNAc3S
In short: as §1

[32] = target: GalNAc3S(b1-4)[Fuc(a1-3)]GlcNAc
In short: as §1

[33] = target: GalNAc4S6S(b1-4)GlcNAc
In short: as §1

[34] = target: GalNAc6S(b1-4)GlcNAc
In short: as §1

[35] = target: Glc(a1-4)Glc
In short: as §1

[36] = target: Glc(a1-4)Glc(a1-4)Glc(a1-4)Glc
In short: as §1

[37] = target: Glc(a1-6)Glc(a1-6)Glc
In short: as §1

[38] = target: Glc(a1-6)Glc(a1-6)Glc(a1-6)Glc
In short: as §1

[39] = target: Glc(b1-4)Glc
In short: as §1

[40] = target: Glc(b1-6)Glc
In short: as §1

[41] = target: GlcA(b1-3)Gal
In short: as §1

[42] = target: GlcA(b1-3)GlcNAc
In short: as §1

[43] = target: GlcA(b1-6)Gal
In short: as §1

[44] = target: GlcA3S(b1-3)Gal(b1-4)GlcNAc(b1-2)Man
In short: as §1

[45] = target: GlcA3S(b1-3)Gal(b1-4)GlcNAc(b1-3)Gal(b1-4)Glc
In short: as §1

B1: Gal 7 (Homo sapiens) (protein)
chain: MSNVPHKSSLPEGIRPGTVLRIRGLVPPNASRFHVNLLCGEEGGSDAALHFNPRLDTSEVVFNSKEGGSWGREERGPGVPFGRGQPFEVLIIASDDGFKAVVGDAQYHHFRHRLPLARVRLVEVGGDVQLDSVRIF
glycan array binding signal (z-score) [1]: -0.203 | glycan array binding signal (z-score) [2]: -0.175 | glycan array binding signal (z-score) [3]: -0.262 | glycan array binding signal (z-score) [4]: -0.354 | glycan array binding signal (z-score) [5]: -0.251 | glycan array binding signal (z-score) [6]: -0.165 | glycan array binding signal (z-score) [7]: -0.324 | glycan array binding signal (z-score) [8]: 0.075 | glycan array binding signal (z-score) [9]: -0.263 | glycan array binding signal (z-score) [10]: -0.208 | glycan array binding signal (z-score) [11]: -0.246 | glycan array binding signal (z-score) [12]: 0.11 | glycan array binding signal (z-score) [13]: -0.299 | glycan array binding signal (z-score) [14]: -0.302 | glycan array binding signal (z-score) [15]: -0.298 | glycan array binding signal (z-score) [16]: -0.308 | glycan array binding signal (z-score) [17]: -0.334 | glycan array binding signal (z-score) [18]: -0.303 | glycan array binding signal (z-score) [19]: 1.77 | glycan array binding signal (z-score) [20]: -0.319 | glycan array binding signal (z-score) [21]: -0.241 | glycan array binding signal (z-score) [22]: -0.26 | glycan array binding signal (z-score) [23]: -0.135 | glycan array binding signal (z-score) [24]: -0.291 | glycan array binding signal (z-score) [25]: -0.297 | glycan array binding signal (z-score) [26]: -0.082 | glycan array binding signal (z-score) [27]: -0.158 | glycan array binding signal (z-score) [28]: -0.217 | glycan array binding signal (z-score) [29]: -0.332 | glycan array binding signal (z-score) [30]: -0.326 | glycan array binding signal (z-score) [31]: -0.264 | glycan array binding signal (z-score) [32]: -0.281 | glycan array binding signal (z-score) [33]: -0.233 | glycan array binding signal (z-score) [34]: -0.335 | glycan array binding signal (z-score) [35]: -0.293 | glycan array binding signal (z-score) [36]: -0.19 | glycan array binding signal (z-score) [37]: -0.308 | glycan array binding signal (z-score) [38]: -0.074 | glycan array binding signal (z-score) [39]: -0.306 | glycan array binding signal (z-score) [40]: -0.292 | glycan array binding signal (z-score) [41]: -0.315 | glycan array binding signal (z-score) [42]: -0.179 | glycan array binding signal (z-score) [43]: -0.332 | glycan array binding signal (z-score) [44]: -0.267 | glycan array binding signal (z-score) [45]: -0.273
